# Reference: the supplement of paper PMC8728848
# Some of the results follow.
# Legend:
# Assay in all cases: glycan array binding signal (z-score within array); higher = stronger binding
# Settings in all cases: glycan notation: IUPAC condensed, linker removed
# [1] = molecular target: Fuc(a1-2)[GalNAc(a1-3)]Gal(b1-3)GlcNAc(b1-3)GalNAc
# How it was run: (§1)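 The Consortium for Functional Glycomics database supplied 3228 glycan arrays, of which those lacking an available protein sequence were dropped. The binding signal, a within-array Z-score, was averaged across arrays of the same protein sequence and across linkers. Negative scores can be read as non-binding.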
# [2] = molecular target: Fuc(a1-2)[GalNAc(a1-3)]Gal(b1-3)GlcNAc(b1-6)GalNAc
# How it was run: as §1
# [3] = molecular target: Fuc(a1-2)[GalNAc(a1-3)]Gal(b1-4)Glc
# How it was run: as §1
# [4] = molecular target: Fuc(a1-2)[GalNAc(a1-3)]Gal(b1-4)GlcNAc
# How it was run: as §1
# [5] = molecular target: Fuc(a1-2)[GalNAc(a1-3)]Gal(b1-4)GlcNAc(b1-2)Man
# How it was run: as §1
# [6] = molecular target: Fuc(a1-2)[GalNAc(a1-3)]Gal(b1-4)GlcNAc(b1-2)Man(a1-3)[Fuc(a1-2)[GalNAc(a1-3)]Gal(b1-4)GlcNAc(b1-2)Man(a1-6)]Man(b1-4)GlcNAc(b1-4)GlcNAc
# How it was run: as §1
# [7] = molecular target: Fuc(a1-2)[GalNAc(a1-3)]Gal(b1-4)GlcNAc(b1-2)Man(a1-3)[Fuc(a1-2)[GalNAc(a1-3)]Gal(b1-4)GlcNAc(b1-2)Man(a1-6)]Man(b1-4)GlcNAc(b1-4)[Fuc(a1-6)]GlcNAc
# How it was run: as §1
# [8] = molecular target: Fuc(a1-2)[GalNAc(a1-3)]Gal(b1-4)GlcNAc(b1-3)Gal(b1-4)GlcNAc
# How it was run: as §1
# [9] = molecular target: Fuc(a1-2)[GalNAc(a1-3)]Gal(b1-4)GlcNAc(b1-3)Gal(b1-4)GlcNAc(b1-3)Gal(b1-4)GlcNAc
# How it was run: as §1
# [10] = molecular target: Fuc(a1-2)[GalNAc(a1-3)]Gal(b1-4)GlcNAc(b1-3)GalNAc
# How it was run: as §1
# [11] = molecular target: Fuc(a1-2)[GalNAc(a1-3)]Gal(b1-4)GlcNAc(b1-3)[Fuc(a1-2)[GalNAc(a1-3)]Gal(b1-4)GlcNAc(b1-6)]GalNAc
# How it was run: as §1
# [12] = molecular target: Fuc(a1-2)[GalNAc(a1-3)]Gal(b1-4)GlcNAc(b1-6)GalNAc
# How it was run: as §1
# [13] = molecular target: Fuc(a1-2)[GalNAc(a1-3)]Gal(b1-4)[Fuc(a1-3)]GlcNAc
# How it was run: as §1
# [14] = molecular target: Fuc(a1-2)[GalNAc(a1-3)]Gal(b1-4)[Fuc(a1-3)]GlcNAc(b1-3)GalNAc
# How it was run: as §1
# [15] = molecular target: Fuc(a1-2)[GalNAc(a1-4)]Gal(b1-4)GlcNAc
# How it was run: as §1
# [16] = molecular target: Fuc(a1-2)[GalNAc(b1-3)]Gal
# How it was run: as §1
# Fuc(a1-3)GlcNAc = molecular target: Fuc(a1-3)GlcNAc
# How it was run: as §1
# [17] = molecular target: Fuc(a1-3)[Gal(b1-4)]Glc6S
# How it was run: as §1
# [18] = molecular target: Fuc(a1-3)[Gal(b1-4)]GlcNAc
# How it was run: as §1
# [19] = molecular target: Fuc(a1-3)[Gal(b1-4)]GlcNAc(b1-2)Man
# How it was run: as §1
# [20] = molecular target: Fuc(a1-3)[Gal(b1-4)]GlcNAc(b1-2)Man(a1-3)[Fuc(a1-3)[Gal(b1-4)]GlcNAc(b1-2)Man(a1-6)]Man(b1-4)GlcNAc(b1-4)GlcNAc
# How it was run: as §1
# [21] = molecular target: Fuc(a1-3)[Gal(b1-4)]GlcNAc(b1-2)Man(a1-3)[Fuc(a1-3)[Gal(b1-4)]GlcNAc(b1-2)Man(a1-6)]Man(b1-4)GlcNAc(b1-4)[Fuc(a1-6)]GlcNAc
# How it was run: as §1
# [22] = molecular target: Fuc(a1-3)[Gal(b1-4)]GlcNAc(b1-3)Gal(b1-3)[Fuc(a1-4)]GlcNAc
# How it was run: as §1
# [23] = molecular target: Fuc(a1-3)[Gal(b1-4)]GlcNAc(b1-3)Gal(b1-4)[Fuc(a1-3)]GlcNAc
# How it was run: as §1
# [24] = molecular target: Fuc(a1-3)[Gal(b1-4)]GlcNAc(b1-3)Gal(b1-4)[Fuc(a1-3)]GlcNAc(b1-3)Gal(b1-4)[Fuc(a1-3)]GlcNAc
# How it was run: as §1
# [25] = molecular target: Fuc(a1-3)[Gal(b1-4)]GlcNAc(b1-3)GalNAc
# How it was run: as §1
# [26] = molecular target: Fuc(a1-3)[Gal(b1-4)]GlcNAc(b1-6)GalNAc
# How it was run: as §1
# [27] = molecular target: Fuc(a1-3)[Gal(b1-4)]GlcNAc(b1-6)[Gal(b1-3)GlcNAc(b1-3)]Gal(b1-4)Glc
# How it was run: as §1
# [28] = molecular target: Fuc(a1-3)[Gal(b1-4)]GlcNAc6S
# How it was run: as §1
# [29] = molecular target: Fuc(a1-3)[Gal3S(b1-4)]Glc
# How it was run: as §1
# [30] = molecular target: Fuc(a1-3)[Gal3S(b1-4)]GlcNAc
# How it was run: as §1
# [31] = molecular target: Fuc(a1-3)[Gal3S(b1-4)]GlcNAc6S
# How it was run: as §1
# [32] = molecular target: Fuc(a1-3)[GalNAc(b1-4)]GlcNAc
# How it was run: as §1
# [33] = molecular target: Fuc(a1-3)[GalNAc(b1-4)]GlcNAc6S
# How it was run: as §1
# Fuc(a1-4)GlcNAc = molecular target: Fuc(a1-4)GlcNAc
# How it was run: as §1
# Fuc(b1-3)GlcNAc = molecular target: Fuc(b1-3)GlcNAc
# How it was run: as §1
# Gal(a1-2)Gal = molecular target: Gal(a1-2)Gal
# How it was run: as §1
binder,measurement,setting,value
"Gal-9-hFc (Mus musculus), O08573-2 (protein) MALFSAQSPYINPIIPFTGPIQGGLQEGLQVTLQGTTKSFAQRFVVNFQNSFNGNDIAFHFNPRFEEGGYVVCNTKQNGQWGPEERKMQMPFQKGMPFELCFLVQRSEFKVMVNKKFFVQYQHRVPYHLVDTIAVSGCLKLSFITFQTQNFRPAHQAPMAQTTIHMVHSTPGQMFSTPGIPPVVYPTPAYTIPFYTPIPNGLYPSKSIMISGNVLPDATRFHINLRCGGDIAFHLNPRFNENAVVRNTQINNSWGQEERSLLGRMPFSRGQSFSVWIICEGHCFKVAVNGQHMCEYYHRLKNLQDINTLEVAGDIQLTHVQT",glycan array binding signal (z-score),[1],-0.072
same,glycan array binding signal (z-score),[2],-0.451
same,glycan array binding signal (z-score),[3],-0.255
same,glycan array binding signal (z-score),[4],-0.485
same,glycan array binding signal (z-score),[5],-0.361
same,glycan array binding signal (z-score),[6],-0.04
same,glycan array binding signal (z-score),[7],-0.135
same,glycan array binding signal (z-score),[8],0.055
same,glycan array binding signal (z-score),[9],0.143
same,glycan array binding signal (z-score),[10],-0.192
same,glycan array binding signal (z-score),[11],-0.223
same,glycan array binding signal (z-score),[12],-0.56
same,glycan array binding signal (z-score),[13],-0.286
same,glycan array binding signal (z-score),[14],0.106
same,glycan array binding signal (z-score),[15],-0.383
same,glycan array binding signal (z-score),[16],-0.459
same,glycan array binding signal (z-score),Fuc(a1-3)GlcNAc,-0.365
same,glycan array binding signal (z-score),[17],1.33
same,glycan array binding signal (z-score),[18],-0.277
same,glycan array binding signal (z-score),[19],-0.268
same,glycan array binding signal (z-score),[20],-0.103
same,glycan array binding signal (z-score),[21],0.147
same,glycan array binding signal (z-score),[22],-0.075
same,glycan array binding signal (z-score),[23],-0.201
same,glycan array binding signal (z-score),[24],-0.312
same,glycan array binding signal (z-score),[25],-0.479
same,glycan array binding signal (z-score),[26],0.042
same,glycan array binding signal (z-score),[27],-0.556
same,glycan array binding signal (z-score),[28],-0.756
same,glycan array binding signal (z-score),[29],-0.196
same,glycan array binding signal (z-score),[30],-0.315
same,glycan array binding signal (z-score),[31],-0.183
same,glycan array binding signal (z-score),[32],-0.241
same,glycan array binding signal (z-score),[33],-0.29
same,glycan array binding signal (z-score),Fuc(a1-4)GlcNAc,1.03
same,glycan array binding signal (z-score),Fuc(b1-3)GlcNAc,0.19
same,glycan array binding signal (z-score),Gal(a1-2)Gal,-0.049
